Reference: PubChem BioAssay AID602332 (National Center for Advancing Translational Sciences (NCATS), 2012)
Several values for one entry are separate records, joined by “and”; a condition that tells them apart may be missing. Equal values may be shown once. Hit rate of the full screen: of about 420,000 compounds, about 75 (0.02%) were called active. The call rests on the fitted dose curve; in most records, active means well fitted activation curve with a large enough effect; inconclusive means small, poorly fitted or top-dose-only effect; inactive means no such curve, though single readings can be large or run the other way. Only a part is listed here, and it is no random draw.

experiment: qHTS for Inducers of the Endoplasmic Reticulum Stress Response (ERSR) in Human Glioma: qHTS; settings: U87-MG GRP78 promoter luciferase reporter, 16 h; activation: active compounds read high; further: % of control where 0% means no effect; nearly all actives have a fitted effect of over 35% in size
Summary of the method: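 Stably transfected U87-MG glioma cells carrying a GRP78-based luciferase sensor; 16 h compound incubation. Luminescence end-point read 10 min after Bright-Glo addition at room temperature.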

activation, inactive:
CC1=C(/C=C/C(C)=C/C=C/C(C)=C/C(=O)Nc2ccc(O)cc2)C(C)(C)CCC1 -10.7% [middle of 5 runs]
CCCCCCCCCCCCCCC[C@@H](O)[C@@H](N)CO -0.315% and -3.87% and -2.63%
Cc1nc(N=Nc2ccc(C(=O)O)cc2)c(COP(=O)(O)O)c(C=O)c1O -10.4%
C#C[C@@]1(O)CC[C@@H]2[C@@H]3CCC4=CC(=O)CC[C@@H]4[C@H]3CC[C@]21CC -5.03%
O=C1c2c(O)cc(O)cc2OC(c2ccc(O)c(O)c2)C1O (configuration not stated) -1.59%
COc1cccc(-n2nnnc2S(C)(=O)=O)c1 -15.8%
CC(=O)CCS(=O)(=O)c1ccc(C)c(C)c1 -18.2%
O=[N+]([O-])c1cnc(Sc2ccncn2)s1 -16.1%
CCOc1cc(/C=C2/COc3ccccc3C2=O)ccc1OCC(=O)N(C)C -2.83%
COc1ccc([C@@H]2CNC(=O)C2)cc1OC1CCCC1 -0.897% and -3.2% and -2.06%
CCN(CC)CCCC(C)Nc1c2ccc(Cl)cc2nc2ccc(OC)cc12 (configuration not stated) -8.85%
Cn1c(-c2ccc(F)cc2)cnc1SCC(=O)N1CCCCC1 -13.6%
C#C[C@]1(O)CCC2C3CCC4=Cc5oncc5CC4(C)C3CCC21C (some centres not stated) -1.7%
Cc1ccc(S(=O)(=O)/C=C\C#N)cc1 -10.2%
O=C(/C=C/Nc1ccc(F)cc1Br)c1ccccc1 -13.8%
Cc1cc(=O)c2c(O)c3c(O)cc(O)c4c5c(O)cc(O)c6c(O)c7c(=O)cc(C)c8c1c2c(c34)c(c65)c78 -5.87%
Cc1ccc(C(=O)/C=C2\NCC(C)NC2=O)cc1 (configuration not stated) -16.4%
Cc1cc(NC(=O)c2ccc3c(c2)OCCO3)no1 -17.8%
C=CCc1ccc(O)c(-c2ccc(O)c(CC=C)c2)c1 -3.68% and -12.4% and -7.48%
C=CCn1c(C)cc(C(=O)CSc2ccc(NC(C)=O)cc2)c1C -15.5%
CCOC(=O)Cn1c(=O)oc2cc(S(=O)(=O)NC(C)c3ccccc3)ccc21 (configuration not stated) 9.07%
O=c1cc(-c2ccc(O)cc2)oc2cc(O)cc(O)c12 -3.02% [middle of 7 runs]
Cc1noc(C)c1S(=O)(=O)N(C)C[C@H]1OCc2cnnn2CCCC(=O)N([C@H](C)CO)C[C@H]1C -2.25%
c1ccc2c(c1)oc1c(Nc3ccc(CN4CCOCC4)cc3)ncnc12 -15.1%
O=C(COc1ccc2c(c1)OCO2)Nc1nccs1 -14.6%
C=CC[C@H](CC(=O)OC(C)(C)C)C(=O)OC[C@@H]1CCCN1C(=O)[C@H](CC=C)CC(=O)N[C@H](CO)Cc1ccccc1 -3.51%
Cc1ccccc1C(=O)N/N=C/c1ccc([N+](=O)[O-])s1 -12.4%
COc1ccc(C(=O)O/N=C(\N)c2ccccn2)cc1 -18.8%
COc1cc(SC)ccc1C(=O)Nc1nccs1 -14.4%
O=C(Nc1ccccc1Cl)/C(Cl)=C(\Cl)S(=O)c1ccccc1 (configuration not stated) -18.9%
O=C(CCCOc1ccccc1)N1CCN(c2ccccn2)CC1 -14%
CC(C)(C)OC(=O)C[C@H]1C/C=C\C[C@@H](CC(=O)N[C@H](CO)Cc2ccccc2)C(=O)NC[C@@H](c2ccccc2)OC1=O -0.399%
OCCN1CCN(CCCN2c3ccccc3Sc3ccc(Cl)cc32)CC1 -3.48% [middle of 4 runs]
Cn1cc([N+](=O)[O-])c(C(=O)Nc2nc(-c3ccc(Cl)cc3)cs2)n1 -15.6%
COc1ccccc1-c1cc(C(F)(F)F)nc(S(=O)(=O)CCCC(=O)N2CCCCC2C)n1 (configuration not stated) -18.5%
COc1nc(C)nc(Cl)c1NC1=NCCN1 -4.9% and -2.41% and -2.86%
CCCCCCCCN1[C@@H](CC(=O)O)c2ccc(C(F)(F)F)cc2S1(=O)=O 0.206%
C/C1=C2N=C(/C=C3N=C(/C(C)=C4\[N-]C(C)(C5N=C1C(C)(CCC(=O)NCC(C)OP(=O)([O-])O[C@H]1C(O)C(n6cnc7cc(C)c(C)cc76)O[C@@H]1CO)C5CC(N)=O)C(C)(CC(N)=O)C4CCC(N)=O)C(C)(CC(N)=O)C\3CCC(N)=O)C(C)(C)C/2CCC(N)=O.[CH2-]C1OC(n2cnc3c(N)ncnc32)C(O)C1O.[Co] (some centres not stated) -12.4%
CC(C)(C)n1ncc2c(=O)n(CC(=O)NCc3ccc(F)cc3)cnc21 -14.1%
CCOC(=O)c1cccc(NC(=O)/C=C/c2ccc3c(c2)OCO3)c1 -14.1%
CS(=O)(=O)c1ccc(S(=O)CC(=O)OCc2ccccc2)c([N+](=O)[O-])c1 (configuration not stated) -16.2%
O=Nc1c(-c2c(O)[nH]c3ccccc23)[nH]c2ccccc12 -2.66% and -5.48%
CCc1nnc(NC(=O)c2nc(S(=O)(=O)Cc3ccc(C)cc3)ncc2Cl)s1 -10.2% and -18.7%
C#C[C@@]1(O)CCC2C3CCC4=CC(=O)CCC4C3CC[C@@]21CC (some centres not stated) -1.71%
COc1cc(N[C@@H](C)CCCN)c2ncccc2c1 -11.6%
COc1ccc(CCN2CCC(Nc3nc4ccccc4n3Cc3ccc(F)cc3)CC2)cc1 -8.89% [middle of 5 runs]
CC[C@@H](C)[C@H]1O[C@]2(CC[C@H]1C)C[C@@H]1C[C@@H](CC=C(C)[C@@H](O[C@H]3C[C@H](OC)[C@@H](O[C@H]4C[C@H](OC)[C@@H](O)[C@H](C)O4)[C@H](C)O3)[C@@H](C)C=CC=C3CO[C@@H]4[C@H](O)C(C)=C[C@@H](C(=O)O1)[C@]34O)O2 -11.7%
O=C(CNCCC1=CCCCC1)Nc1ccc(N2CCCCCC2)cc1 -15.3%
Cc1nc2ccc(-c3nc4cc(N)ccc4o3)cc2[nH]1 -14%
CC(=O)OC[C@H]1O[C@@H](Sc2cccc3cccnc23)[C@H](OC(C)=O)[C@@H](OC(C)=O)[C@@H]1OC(C)=O -4.83%
N#CC1=C(N)C(C#N)(C#N)[C@H](c2cccnc2)[C@H]2CN(C(=O)OCc3ccccc3)CC=C12 -0.664%
COc1cc(/C=C(\C#N)C(=O)Nc2nnc(C(F)(F)F)s2)ccc1OCc1ccc(C(F)(F)F)cc1C(F)(F)F -2.28%
O=C(OCC(F)(F)F)c1cccc(COc2ccc3ccccc3c2)c1 -15%
O=C(NCCc1ccccc1)c1ccc2c(c1)OCCCO2 -18.6%
CCOc1ccc(NC(=O)c2cnsn2)cc1 -13.3%
CC(C)(C)OC(=O)C[C@H]1C/C=C\C[C@@H](CC(=O)N[C@@H](CO)Cc2ccccc2)C(=O)NC[C@@H](c2ccccc2)OC1=O -1.71%
CC(C)C[C@H](N)c1nnc(S(=O)(=O)Cc2ccc(F)cc2)o1 -15.1%
CCCOC(=O)c1ccc(Oc2c(-c3ccc(OC)cc3O)n[nH]c2C)cc1 -18.6%
CCN(Cc1ccccc1)C(=O)COC(=O)c1n[nH]c2ccccc12 -18.5%
CCOc1ccc(C(=O)CCN2CCCCCC2)cc1 -17%
COc1ccc(C(=O)Nc2ccc3ccccc3n2)c(OC)c1OC -12.4%
CN(C)c1ccc(/C=C2/C(=O)Nc3ccccc32)cc1 -7%
Cc1ccc(-n2[nH]c(C)c(C=Nc3ccc4[nH]c(=O)[nH]c4c3)c2=O)cc1C -14.2%
CCOC(=O)c1c(C)[nH]c(C(=O)CSc2ccccc2)c1C -14.2%
CC(C(=O)O)c1ccc(N2Cc3ccccc3C2=O)cc1 (configuration not stated) -11% and -12.1%
Cc1cccc(C#Cc2ccccc2)n1 -0.726% [middle of 4 runs]
CC1=C(C)CS(=O)N(S(=O)(=O)c2ccc(Cl)cc2)C1 (configuration not stated) -17.1%
N#CC1=C(N)Oc2n[nH]c(-c3cccs3)c2C1c1cccnc1 (configuration not stated) -14.6%
C=CC[C@@H](CC(=O)OC(C)(C)C)C(=O)OC[C@@H]1CCCN1C(=O)[C@H](CC=C)CC(=O)NCCO 2.79%
Cc1noc(C)c1S(=O)(=O)N(C)C[C@H]1OCc2cnnn2CCCC(=O)N([C@H](C)CO)C[C@@H]1C 2.25%
COc1c(-c2ccc(O)c(O)c2)oc2cc(O)cc(O)c2c1=O -3.24%
O=c1cc(-c2ccc(O)c(O)c2)oc2cc(O[C@@H]3O[C@H](CO)[C@@H](O)[C@H](O)[C@H]3O)cc(O)c12 -7.07% and 2.74%
CCSC1(SCC)N=C(N)C2(C#N)C(c3ccc(F)cc3)C12C#N (configuration not stated) -18.5%
CC(C)(C)OC(=O)C[C@H]1C/C=C\C[C@@H](CC(=O)N[C@H](CO)Cc2ccccc2)C(=O)NC[C@H](c2ccccc2)OC1=O -4.47%
O=C(OCn1ncc(Br)c(Br)c1=O)c1ccccc1Cl -17.1%
O=C(CS(=O)c1ccc(C(F)(F)F)cc1[N+](=O)[O-])Oc1ccccc1 (configuration not stated) -17.3%
O=C(/C=C\c1ccc(O)c(O)c1)O[C@@H]1C[C@](O)(C(=O)O)C[C@@H](O)[C@@H]1O -3.13%
